# Measurements reported in PubChem BioAssay AID504332 (National Center for Advancing Translational Sciences (NCATS), 2011).
# Several values for one entry are separate records, joined by “and”; a condition that tells them apart may be missing. Equal entries are not always repeated. Screen size: about 350,000 compounds; about 31,000 (8.9%) were called active. The shares of active, inactive and inconclusive entries below differ from those in the screen. Calls come from the whole dose curve; as a rule, active = well fitted inhibition curve with a large enough effect; inconclusive = small, poorly fitted or top-dose-only effect; inactive = no such curve, though single readings can be large or run the other way. A potency beside an inconclusive call is a rough fit, not a confirmed value. Some structures have more than one record in an assay (separate samples or runs), and their calls can disagree.
# Molecular target: Histone-lysine N-methyltransferase EHMT2 (Homo sapiens) (UniProt Q96KQ7)
# Sequence of UniProt Q96KQ7 (Q96KQ7 whole entry, looked up): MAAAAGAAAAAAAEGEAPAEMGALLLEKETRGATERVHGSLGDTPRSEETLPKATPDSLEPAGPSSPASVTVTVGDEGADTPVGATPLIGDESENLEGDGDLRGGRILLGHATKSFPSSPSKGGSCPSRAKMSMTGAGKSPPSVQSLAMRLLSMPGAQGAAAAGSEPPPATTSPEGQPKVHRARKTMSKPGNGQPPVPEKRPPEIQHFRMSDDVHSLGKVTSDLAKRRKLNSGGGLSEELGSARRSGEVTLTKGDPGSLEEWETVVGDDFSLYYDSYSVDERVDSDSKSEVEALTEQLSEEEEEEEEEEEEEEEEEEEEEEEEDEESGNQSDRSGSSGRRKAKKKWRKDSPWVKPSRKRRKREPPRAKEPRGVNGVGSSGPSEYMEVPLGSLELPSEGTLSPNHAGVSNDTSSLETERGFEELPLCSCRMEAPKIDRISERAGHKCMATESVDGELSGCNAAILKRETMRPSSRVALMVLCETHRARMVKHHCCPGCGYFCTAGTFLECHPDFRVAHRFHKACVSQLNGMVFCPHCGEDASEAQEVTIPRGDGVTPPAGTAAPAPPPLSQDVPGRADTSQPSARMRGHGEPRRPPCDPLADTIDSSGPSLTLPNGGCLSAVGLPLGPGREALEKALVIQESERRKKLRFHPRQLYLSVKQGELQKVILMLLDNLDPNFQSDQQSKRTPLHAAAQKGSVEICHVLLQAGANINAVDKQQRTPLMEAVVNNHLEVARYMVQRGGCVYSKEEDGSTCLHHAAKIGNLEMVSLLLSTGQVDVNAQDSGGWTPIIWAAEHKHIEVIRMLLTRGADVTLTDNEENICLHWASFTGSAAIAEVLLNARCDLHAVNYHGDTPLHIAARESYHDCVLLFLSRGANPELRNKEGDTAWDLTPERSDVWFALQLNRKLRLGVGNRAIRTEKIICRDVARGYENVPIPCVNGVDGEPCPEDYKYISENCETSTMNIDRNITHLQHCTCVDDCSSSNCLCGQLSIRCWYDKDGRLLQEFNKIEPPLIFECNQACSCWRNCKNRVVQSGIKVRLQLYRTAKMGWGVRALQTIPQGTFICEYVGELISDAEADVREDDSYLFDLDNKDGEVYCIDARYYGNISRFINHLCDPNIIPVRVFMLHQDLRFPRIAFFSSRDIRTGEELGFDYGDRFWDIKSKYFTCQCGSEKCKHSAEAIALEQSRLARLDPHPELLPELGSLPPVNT
# Test: qHTS Assay for Inhibitors of Histone Lysine Methyltransferase G9a; note: nearly all actives have a fitted effect of over 75% in size
# Conditions: G9a H3K9 monomethylation, AlphaScreen, 2 h; activity, negative = inhibition: at 59 µM (top of the series) unless noted
# How it was run: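 Compounds were preincubated with 20 nM G9a for 15 min, after which biotinylated H3K9 peptide (500 nM) and SAM (20 uM) started a 2 h room-temperature reaction. Monomethylated product was quantified by antibody-based AlphaScreen chemiluminescence.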
# % is set by controls: 0 for no effect and ±100 for the full control effect; potency is the fitted concentration of half-maximal effect; tags give direction and shape of the fitted curve.
SMILES,Potency,"activity, negative = inhibition"
CCOc1ccc(Nc2sc(C(=O)c3cccc(OC)c3)c(N)c2S(=O)(=O)c2ccccc2)cc1,inactive,–
Cc1nn(-c2ccccc2)c(C)c1/C=N/n1c(-c2ccncc2)n[nH]c1=S,active: 2.24 µM,–
COc1cc(/C=C2\C(=N)N3N=C(S(C)(=O)=O)SC3=NC2=O)ccc1OC(=O)c1ccco1,active: 44.7 µM,–
CN1CCN(c2nc(Nc3ccc(F)cc3)nc(Nc3ccc(F)cc3)n2)CC1,"inconclusive: 89.1 µM [inhibitor, single point]",–
CC(C)OCCCn1c(-c2ccco2)nc2nc3ccccc3nc21,"inconclusive: 39.8 µM [inhibitor, single point]",–
Cc1ccc([N+](=O)[O-])cc1N=Nc1c(C)[nH]n(C(N)=S)c1=O,inactive,–
Fc1ccc(/C=N/n2cnn(Cc3ccccc3Cl)c2=S)cc1,active: 20 µM,–
CCC(C(=O)Nc1ccc(C(=O)OC)cc1)n1nc(-c2ccc(C)c(C)c2)ccc1=O (stereo not given),"inconclusive: 8.91 µM [inhibitor, single point]",–
CCCn1c(=O)c2[nH]c(-c3ccc(OCC(=O)NCCN)cc3)nc2n(CCC)c1=O,active: 14.1 µM,inactive: 32.3% [at 12.7 µM]
O=C(Cn1c(=O)cnc2ccccc21)N1CCN(S(=O)(=O)c2ccccc2Br)CC1,–,inactive: -31.4% [at 12.7 µM]
Cc1oc(C)c2c(=O)cc(-c3ccc4c(c3)OCO4)cc(OC(=O)c3cccc(Cl)c3)c12,"inconclusive: 12.6 µM [inhibitor, partial curve]",–
CC[C@@H]1O[C@]2(C=C[C@@H]1C)C[C@H]1C[C@H](CC=C(C)[C@@H](O[C@@H]3C[C@H](OC)[C@H](O[C@@H]4C[C@H](OC)[C@H](O)[C@H](C)O4)[C@H](C)O3)[C@@H](C)C=CC=C3CO[C@@H]4[C@@H](O)C(C)=C[C@@H](C(=O)O1)[C@]34O)O2,inactive,–
C[C@H](NC(=O)c1nc[nH]c1C(=O)N1CCNCC1)C(=O)OC(C)(C)C,"inconclusive: 3.55 µM [inhibitor, partial curve, poor fit]",–
CCOc1ccc(CNc2nnnn2C)cc1,inactive,–
O=C(c1ccccc1Br)N1CCC(c2nc3ccccc3o2)CC1,inactive,–
Cc1ccc(NC(=O)CSc2nnc(CSc3nc(C)cc(C)n3)n2Cc2ccco2)c(C)c1,"inconclusive: 28.2 µM [inhibitor, single point]",–
COc1ccc2c(c1)-c1nc(/N=C/c3ccccc3O)sc1CC2,"inconclusive: 11.2 µM [inhibitor, partial curve, poor fit]",–
Cc1ccc(S(=O)(=O)/C=C/C#N)cc1,active: 1.12 µM and active: 1.58 µM,–
CCOc1ccc(NC(=O)CN(C)C(=O)CCNC(=O)c2ccc(Br)cc2)cc1OCC,"inconclusive: 56.2 µM [inhibitor, partial curve]",–
CCCCC(c1nnnn1CS(=O)(=O)c1ccc(C)cc1)N1CCN(c2ccccc2)CC1 (stereo not given),"inconclusive: 3.98 µM [inhibitor, partial curve, poor fit]",–
CCn1c(SCc2nc3ccccc3c(=O)[nH]2)nc2ccccc21,"inconclusive: 100 µM [inhibitor, single point]",–
COc1ccc(/C=C/C(=O)O)cc1S(=O)(=O)NC1CCS(=O)(=O)C1 (stereo not given),"inconclusive: 50.1 µM [inhibitor, partial curve]",–

SMILES,Potency,"activity, negative = inhibition"
Cc1ccccc1C(=O)NCCCNC(=O)c1ccco1,"inconclusive: 89.1 µM [inhibitor, single point]",–
O=C(O)C1=CC[C@@H](c2ccc(Cl)cc2)N(S(=O)(=O)c2ccc(Cl)cc2)[C@H]1c1cccc(Cl)c1,–,inactive: 26.2% [at 2.33 µM]
COc1ccc(/C=C/C(=O)O)cc1Cl,inactive,–
COc1ccc(-c2csc(NC(=O)Cc3ccccc3F)n2)cc1OC,"inconclusive: 56.2 µM [inhibitor, single point]",–
O=C(Cn1cc2c(n1)CCCC2)NCCCN1CCN(Cc2ccccc2)CC1,"inconclusive: 79.4 µM [inhibitor, single point]",–
Cc1ccc2c(c1)NCC(C(=O)NC1CCC(C)CC1)O2 (stereo not given),"inconclusive: 89.1 µM [inhibitor, single point]",–
COc1cc(C(=O)N(Cc2cccnc2)c2nc3cc(C)c(C)cc3s2)cc(OC)c1OC,inactive,–
Cc1ccsc1CN(C(=O)COc1cccc(C)c1C)C1CCS(=O)(=O)C1 (stereo not given),inactive,–
CN1C(=O)C(C)(C)c2cc(S(=O)(=O)N3CCCC3C(=O)Nc3ccc(F)cc3)ccc21 (stereo not given),inactive,–
COC(=O)CCCC1=CC2=CC(=O)C(C)(OC(=O)c3cccs3)C(=O)C2=CN1CCc1ccccn1 (stereo not given),inactive,–
O=C(O)c1cc(N=Nc2c(O)ccc3ccccc23)cc(C(=O)O)c1,–,inconclusive: -87.5% [inhibitor]
CC(Oc1cc2oc(=O)c3c(c2cc1Cl)CCC3)C(=O)NCCCn1ccnc1 (stereo not given),inactive,–
O=C(CC1SC2=NCCN2C1=O)Nc1ccc(Br)cc1 (stereo not given),inactive,–
CCN1CCC2(CC1)C(C#N)=C(N)Oc1c2sc2nc(C)cc(C)c12,"inconclusive: 39.8 µM [inhibitor, partial curve, poor fit]",–
Cc1ccccc1C(=O)N(Cc1ccc(N(C)C)cc1)CC1CCCO1 (stereo not given),"inconclusive: 11.2 µM [inhibitor, partial curve]",–
CCOc1ncccc1C(=O)Nc1ccc(OC)c(S(=O)(=O)N2CCCCC2)c1,inactive,–
CC(C)c1ccc2oc(=O)cc(CN3CCCCC3)c2c1,active: 70.8 µM,–
O=C(CCN1CCN(Cc2ccccc2)CC1)Nc1ccc(OCc2ccccc2)cc1,"inconclusive: 89.1 µM [inhibitor, single point]",–
O=[N+]([O-])c1cc(C(F)(F)F)ccc1Sc1ccc2ccccc2n1,active: 39.8 µM,–
O=C1NCC(=O)N2C(c3ccccc3)c3[nH]c4ccccc4c3C[C@@H]12 (stereo not given in full),inactive,–
O=C(NCC(=O)N(c1ccccc1)C(C(=O)NC1CCCC1)c1ccncc1)c1cccs1 (stereo not given),"inconclusive: 89.1 µM [inhibitor, partial curve, poor fit]",–
O=C(Cn1ncn2c(cc3ccccc32)c1=O)NCCc1cccs1,"inconclusive: 100 µM [inhibitor, single point]",–
